Reference: PubChem BioAssay AID1508624 (National Center for Advancing Translational Sciences (NCATS), 2021)
Among all 48,000 compounds or so, about 120 (0.25%) were called active. Roughly 4% stayed inconclusive and do not appear here. The call rests on the fitted dose curve; in most records, active means well fitted activation curve with a large enough effect; inconclusive means small, poorly fitted or top-dose-only effect, or another doubt; inactive means no such curve, though single readings can be large or run the other way. Some of the results follow.

Assay: Primary qHTS for Identification of Small Molecule Activators of Huntingtin-Antisense Promoter Activity; further: nearly all actives have a fitted effect of over 55% in size
Conditions: HEK293 HTT-AS promoter firefly luciferase reporter, 24 h; series mostly up to 57.5 µM; activity change, positive = activation: at the top concentration
Summary of the method: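 Quantitative HTS used concentration series of up to 57.5 uM final on HEK293 luciferase reporter cells, 24 h at 37 degrees C. Readout was Dual-Glo firefly luminescence.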

Activity change, positive = activation, inactive:
COc1cc(OC)c(NC(=O)C(c2ccccc2)N2Cc3ccccc3C2=O)cc1Cl (centres undefined) -2.08%
O=C(CCCl)NCc1ccccc1 -8.71%
CCOc1ccc(N2CC(c3nc4ccccc4n3CCCOc3ccccc3OC)CC2=O)cc1 (centres undefined) 0.0368%
CCc1nnc(SCc2cccc(F)c2)c2cc3sc(C)cc3n12 -26.1%
CCS(=O)(=O)N1CC(=O)N(c2ccc(Cl)cc2C)C(C)(C(=O)NC2CCCCCC2)C1 (centres undefined) -34.2%
CCOC(=O)c1scc(-c2ccccc2)c1S(=O)(=O)Nc1ccc(N(C)C)cc1 -25.8%
CC(C)CN(CCCNC(=O)c1cc(-c2ccc(Br)s2)nc2ccccc12)CC(C)C -15.8%
O=C(Nc1nonc1-c1ccc(Cl)cc1)c1ccccc1F -42.1%
COc1ccc(CCNC(=O)C2(c3cccs3)CCOCC2)cc1 -21%
COc1ccc(N2CC(NC(=O)/C=C\c3ccc4c(c3)OCO4)CC2=O)cc1 (centres undefined) -44.4%
COc1ccc(OC)c(CNC(=O)c2ccc3nc(C(C)C)oc3c2)c1 1.02%
COc1cc(OC)c(NC(=O)c2c(N3CCCC3=O)c3cc(C)ccc3n2C)cc1Cl -8.32%
CCCc1ccc(S(=O)(=O)N2CCC(c3nnc(-c4cccc(C)c4)o3)CC2)cc1 -67.5%
COc1ccc(Cl)cc1C(=O)Nc1ccc2nc(Nc3cccc(Cl)c3)cc(C)c2c1 -9.87%
CCOc1ccccc1NC(=O)Cn1ncc2c([nH]c3ccccc32)c1=O -13.8%
Cc1ccccc1OCC(=O)Nc1nnc(S(=O)(=O)N2CCCC2)s1 -15.1%
COc1ccc(C)cc1NC(=O)c1c2c(nc3ccccc13)C(=O)N(C1CCCCC1)C2 -44.8%
Cc1ccc(-c2cc3ncc(C(=O)c4cc(Cl)c(C)cc4O)cn3n2)cc1 -6.71%
CCOc1ccc(Br)cc1C1C(C(=O)OC)=C(C)NC2=C1C(=O)c1ccccc12 (centres undefined) 0.839%
CCN(C(=O)CSc1ncc2c(n1)-c1cc(Cl)ccc1N(Cc1ccccc1)S2(=O)=O)c1cccc(C)c1 -14.5%
Cc1ccc(Cl)cc1NC(=O)C(Cc1ccccc1)NS(=O)(=O)c1cccc2nsnc12 (centres undefined) -11.2%
CCc1c(C)sc2c1CCN(C(=O)Nc1ccccc1C(=O)OC)C2c1ccc(OC)cc1 (centres undefined) 10.6%
COc1ccc(OC)c(C2Nc3c(C)cc(C)cc3-c3cc(C)nn32)c1 (centres undefined) 15.6%
Cc1ccc(NS(=O)(=O)c2ccc3c(c2)CC(=O)N3)cc1Cl -22.4%
O=C(NCc1ccc(Cl)cc1)C1=Cc2cc(Br)ccc2OC1 -16.6%
CCOc1ccc(NC(=O)CN2C(=O)C(c3ccc(Cl)cc3)=NC2(C)C)cc1 -22.4%
CCC(=O)N1CCc2cc(Br)cc(S(=O)(=O)N3CCCC(C(=O)Nc4cc(C)ccc4OC)C3)c21 (centres undefined) -6.75%
CCn1c(=O)cc(OCC(=O)N(C)c2ccc(OC)cc2)c2ccccc21 -2.35%
CCC(CC)(CC(=O)Nc1cccc(/C=C/c2nc(C3CCC3)cs2)c1)C(=O)O 19.8%
Cc1ccc(Cl)cc1N1CCN(C(=O)c2cc3ccc4cccnc4c3[nH]2)CC1 13.4%
NC(=O)c1ncn([C@@H]2O[C@H](CO)[C@@H](O)[C@H]2O)n1 -25.5%
CCc1cccc(NC(=O)Cn2c(=O)n(CCC(=O)NCc3ccccc3Cl)c(=O)c3sccc32)c1 -1.07%
CCOC(=O)c1cc(C)n(CC2CCC(C(=O)Nc3cccc(Cl)c3)CC2)c1C (centres undefined) -16.6%
CCN(CC)c1ccc(NC(=O)CN2CCN(c3ccccc3OC)CC2)cc1 -14.6%
Oc1c(C(c2ccccc2)N2CCOCC2)sc2nc(-c3ccco3)nn12 (centres undefined) 10.2%
Cc1cc(C)cc(NC(=O)c2sc3nc4n(c(=O)c3c2C)N=C(c2ccccc2)CS4)c1 5.84%
Cc1cccc(OC(C)C(=O)Nc2nonc2-c2ccc(Br)cc2)c1C (centres undefined) -34.2%
COc1ccc(C2=C(C)C(=O)N(Cc3ccc(C(=O)NC(C)c4ccccc4)cc3)S2(=O)=O)cc1 (centres undefined) -8.1%
CCOC(=O)[C@H](CCc1ccccc1)N[C@@H](C)C(=O)N1[C@H](C(=O)O)C[C@@H]2CCC[C@@H]21 -6.37%
CCOc1ccc(N2CC(c3nc4ccccc4n3CCCCOc3ccc(OC)cc3)CC2=O)cc1 (centres undefined) -35.1%
Cc1cc(=O)n2nc(N3CCC(C(=O)Nc4c(C)cccc4C)CC3)sc2n1 -1.93%
CC1CCN(S(=O)(=O)c2cc3c4c(c2)C(C)C(=O)N4CCC3)CC1 (centres undefined) -4.83%
Cc1cccc(N2C(=O)CSC23C(=O)N(CC(=O)Nc2cccc(Cl)c2)c2ccccc23)c1 (centres undefined) -31.7%
O=C(NC1CCCCCC1)C1c2ccccc2C(=O)N1Cc1ccc(F)cc1 (centres undefined) -11.6%
COc1ccc(CNC(=O)CN2C(=O)CSc3ccc(S(=O)(=O)N(C)C)cc32)cc1 7.98%
COc1ccc(-c2onc(C)c2C)cc1S(=O)(=O)Nc1cccc(C#N)c1 -37.1%
CN(C)CCN(Cc1ccco1)C(=O)c1cc2c(s1)-c1ccccc1OC2 -28.1%
O=C(NCCc1ccc(Cl)cc1)c1ccc2c(c1)nc1n2CCOC1 17.5%
CCOC(=O)N1CCc2c(sc3c2c(=O)n(-c2ccc(F)cc2)c(=O)n3CC(=O)c2ccc(Cl)cc2)C1 -13.7%
Cc1cccc(C(=O)NC2(C(F)(F)F)N=C(c3ccccc3)N(C3CCCCC3)C2=O)c1 (centres undefined) -2.28%
COc1ccc([C@@H]2Sc3ccccc3NC(=O)[C@@H]2O)cc1 -13.7%
CC(=O)C1=C(c2ccc(F)cc2)N(C(C)=O)n2c(nnc2C2CCCCC2)S1 -0.967%
CNC(=O)c1ccc(-c2cnc3ncc(Cc4ccc5ncccc5c4)n3n2)cc1F -3.38%
COC(=O)[C@H]1[C@H]2C[C@@H]3c4[nH]c5cc(OC)ccc5c4CCN3C[C@H]2C[C@@H](OC(=O)COc2ccc(OC)cc2)[C@@H]1OC -11.3%
CCOc1ccc(C(=O)NCC(c2ccc(Cl)cc2)N2CCCCC2)cc1 (centres undefined) 6.43%
Nc1nc(=O)n([C@H]2C[C@H](O)[C@@H](CO)O2)cc1F -8.31%
O=C(Cn1ncc2c3ccccc3n(Cc3cccc(Cl)c3)c2c1=O)NCCCN1CCCCC1 -1.24%
CCOCCCNc1nc2c(S(=O)(=O)c3ccc(CC)cc3)nnn2c2ccc(Cl)cc12 16.5%
Cc1ccc(CNC(=O)Cn2c(=O)cc(C)c3c(C)nn(-c4cccc(F)c4)c32)cc1 -5.61%
Cc1ccc(C)c(N2CCN(S(=O)(=O)c3ccc(-c4cnc(C5CC5)o4)cc3)CC2)c1 -10.5%
Cc1ccc(NC(=O)CSc2nc(-c3cccs3)nc3cc(=O)[nH]n23)cc1C -17.5%
CCOc1ccccc1CN1CCc2nc(N3CCN(C)CC3)ncc2C1 -8.92%
O=C(NCCc1ccccc1)C1CCN(Cc2cc3ccccc3n2Cc2ccccc2)CC1 -31.1%
COc1ccc(-c2cn3cccnc3n2)cc1NC(=O)Nc1cc(C)ccc1C -3.3%
COc1ccc(COC(=O)C2=C(C)NC(=O)CC2c2cccc(Cl)c2Cl)cc1 (centres undefined) -11%
CCOc1ccc(-c2cc(C(=O)NC(C)c3ccccc3)c3ccccc3n2)cc1 (centres undefined) 15.6%
CN1C(C(=O)c2ccccc2)=C(NC(=O)c2ccc(F)cc2)c2ccccc2S1(=O)=O -11.2%
CCOC(=O)c1cc(-c2ccc(OC)c(S(=O)(=O)NCc3ccccc3Cl)c2)on1 -9.8%
CC1CCCCN1CCCNC(=O)CN1C(=O)CSc2ccc(S(=O)(=O)N3CCOCC3)cc21 (centres undefined) -8.39%
COc1ccc(OC)c(NC(=O)Cn2ccn(-c3ccc(OC)c(OC)c3)c(=O)c2=O)c1 -1.08%
COc1ccc(-c2nnn3c2nc(NCc2ccc(C)cc2)c2ccccc23)cc1 -4.54%
Cc1cc(C)c(NC(=O)C(C)n2c(=O)cc(-c3ccccc3)c3c(C)nn(C)c32)c(C)c1 (centres undefined) -0.712%
CCCNC(=O)CSc1c(CCC)cnc2c1c(=O)n(C)c(=O)n2C -4.06%
CC(C)COCC(CN(Cc1ccccc1)c1ccccc1)N1CCCC1 (centres undefined) -31.5%
O=C(CCOCCOCCOCCOCCC(=O)Nc1c(I)cc(I)c(C(=O)O)c1I)Nc1c(I)cc(I)c(C(=O)O)c1I -4.42%
C[C@H]1[C@@H](OC(=O)CCC(=O)O)O[C@@H]2O[C@@]3(C)CC[C@@H]4[C@H](C)CC[C@@H]1[C@@]24OO3 -31.2%
O=C(CN1C(=O)C2(SCC(=O)N2c2cccc(F)c2)c2ccccc21)NCCc1ccccc1 (centres undefined) -8.12%
O=C(NCCc1csc(-c2cccnc2)n1)c1ccccc1 5.85%
CCOC(=O)c1cnc(N2CCN(c3cccc(C)c3C)CC2)c2ccccc12 1.39%
Cc1ccccc1C(=O)OCc1cc(=O)n2nc(C3CCCCC3)sc2n1 9.12%
Cc1nnc2c(N3CCN(c4ccc(F)cc4)CC3)nc3ccc(C(=O)c4ccccc4)cc3n12 -1.55%
CCOc1ccccc1NC(=O)CN(C)S(=O)(=O)c1ccc(C(=O)N2CCOCC2)s1 0.783%
O=c1c(=O)n(-c2ccc(F)c(F)c2)ccn1Cc1ccc(F)cc1Cl -0.412%
COc1ccc(C)cc1NC(=O)C1CCCN(c2ncnc3onc(C)c23)C1 (centres undefined) -26.8%
Cc1cccc(NC(=O)CCn2cnc3ccccc3c2=O)c1 -2.21% [at 11.5 µM, percent change from vehicle, -100% = no light]
CCCc1nnc(NC(=O)c2nc(SCC)ncc2Cl)s1 14.8%
CCOC(=O)C1=C(CS(=O)(=O)c2ccc(F)c(C)c2)NC(=O)NC1c1ccccc1OC (centres undefined) -18.4%
CCOC(=O)c1noc2ncn(CC(=O)Nc3cccc(C(F)(F)F)c3)c(=O)c12 -11.7%
CCc1nn(CC(=O)N2CCCCC2)c(=O)c2cc3occc3n12 -9.56%
CN(C)/N=N/c1nc[nH]c1C(N)=O 0.831%
CCOc1ccc(NC(=O)N2CCN(c3nnc(C)c4c(C)n(-c5ccccc5)nc34)CC2)cc1 -6.62%
COc1ccc(-n2nc(C(=O)Nc3cc(C)ccn3)c3c4ccccc4n(C)c3c2=O)cc1 3.94%
CCCCn1c(=O)n(-c2cc(OC)ccc2OC)c(=O)c2c3c(sc21)CN(C(C)=O)CC3 -14.3%
Cc1cc(Nc2cccc(Cl)c2)nc2ccc(NC(=O)c3cncc(Br)c3)cc12 -54.2%
